From ChEMBL document CHEMBL4888484, “Replenishing the malaria drug discovery pipeline: Screening and hit evaluation of the MMV Hit Generation Library 1 (HGL1) against asexual blood stage Plasmodium falciparum ,using a nano luciferase reporter read-out” (2022)
The campaign covered roughly 150,000 compounds. About 540 (0.36%) showed an effect of 50% or more. The list shows a part of the results.

What follows are compounds tested on Plasmodium falciparum (assay: Primary screen in NF54 nanoGlo assay, in single point, at 2uM, 72h; a lower Z score goes with more inhibition). Conditions: timepoint 72 hour.
Type: functional, Erythrocyte

| Structure (SMILES) | % Inhibition | Z score |
| --- | --- | --- |
| Cn1cccc1CN1CCCN(S(=O)(=O)c2ccccc2)CCC(=O)NCC1 | -5% | 0.61 |
| Cn1cccc1CN1CCC(CC2CC2)(NC(=O)c2ccccc2)CC1 | -6% | 1.24 |
| Cc1ccc(NS(=O)(=O)c2cc(-c3noc(C(=O)N4CCOCC4)n3)cs2)nc1 | -21% | 2.38 |
| Clc1ccc(COc2ccccc2-c2ccn(Cc3ccc(Cl)c(Cl)c3)n2)cc1 | -6% | 0.88 |
| Cc1noc(C)c1Cc1noc(CCCOCc2ccccc2)n1 | -9% | 1.29 |
| COc1ccc(NC(=O)CCNC(=O)[C@H]2O[C@@H]3OC(C)(C)O[C@@H]3[C@H]3OC(C)(C)O[C@H]32)cc1 | 1% | -0.12 |
| Cc1cc2c(c(-c3cnccn3)c1)O[C@@H](CNC(=O)/C(F)=C/c1ccccc1)C2 | 14% | -1.78 |
| C[C@H]1CN(C)CCN1C(=O)c1cnc(-c2ccccc2)nc1 | -4% | 0.35 |
| CC[C@@H](Cc1ccc(C(F)(F)F)cc1)C(=O)Nc1nnn[nH]1 | 1% | -0.17 |
| COc1ccc2nc(C)cc(Nc3ccccc3OC)c2c1 | 3% | -0.48 |
| CCC12OC3C(O)C4CC3C1C4C(=O)N2c1ccc(Cl)cc1Cl (centres undefined) | -13% | 1.2 |
| CN1CC[C@@]2(CCC1=O)CN(c1ccnc3ccc(Cl)cc13)CCN2C | -4% | 0.66 |
| Cc1cc(C)nc(-n2cc(C(=O)N3CC4CCC3C4)c(C(C)C)n2)n1 (centres undefined) | -14% | 1.44 |
| COc1cccnc1N(C)C(=O)C1(C#N)CCCCC1 | -7% | 0.62 |
| Cc1cccc(NC(=O)Cn2cnc3nc4c(cc3c2=O)CCCC4)c1 | -15% | 2.29 |
| O=C(COc1ccccc1Cl)Nc1ccc2[nH]ncc2c1 | -13% | 1.55 |
| C=C(C)CN(CC)C(=O)CNc1c(C)cccc1C(N)=O | -2% | 0.28 |
| CC(O)CN(CC(C)O)CC(O)COc1ccccc1Br (centres undefined) | -11% | 1.48 |
| CCn1cc(C(=O)N2CCCN(CC(C)C)[C@H](c3nc(C)no3)C2)cn1 | -11% | 2.02 |
| CCn1cc(S(=O)(=O)N2CCOc3c(F)ccc(F)c32)cn1 | -3% | 0.64 |
| O=C(C1CCCCC1)N1CCCc2ccccc21 | 5% | -0.66 |
| O=C(NCCOCCn1cccn1)Nc1ccccc1 | -14% | 1.61 |
| O=C(NCc1n[nH]c(=O)[nH]1)[C@@H]1CCCN1C(=O)C1CCCCC1 | 9% | -1.63 |
| CCOC(=O)c1nn(Cc2ccccc2)c2c1CN(C(=O)c1nonc1C)CC2 | -11% | 1.38 |
| CC(C)c1nccc(C(=O)NCC[C@H]2CCCN(C)C2)n1 | 10% | -1.96 |
| Cc1ccc(C(=O)N2CCN(C3CCCCC3)CC2)cc1-n1nnc2cccnc21 | -16% | 3.09 |

| Structure (SMILES) | % Inhibition | Z score |
| --- | --- | --- |
| Cn1cc(-c2ccc(CNC(=O)c3nc(-c4cccs4)cs3)cn2)cn1 | -15% | 2.18 |
| CC[N+]1(Cc2cc(CCC(=O)OC)ccc2OC)CCCCC1 | -6% | 0.74 |
| Cc1cc(C)c2c(c1)NC(=O)[C@H]2CC(=O)NCCc1cc(=O)[nH]c(C(C)C)n1 | -9% | 1.01 |
| C=C1C(C)(C)[C@@H]2CC[C@@]1(C(=O)NCc1cc(C3CC3)on1)C2 | 9% | -1.22 |
| CCc1nc(C)c(C(=O)NC[C@H]2CCCN(S(C)(=O)=O)C2)s1 | -16% | 2.96 |
| CCN(C[C@H]1CCCCO1)c1nc(CCN)nc2ccccc12 | -3% | 0.25 |
| O=C(O)c1nnn(-c2cccc(OC(F)(F)F)c2)c1-c1cccnc1 | -20% | 2.18 |
| O=C(N[C@H]1CC(=O)N(C2CC2)C1)C1CCC1 | -9% | 1.69 |
| CCOC(=O)c1nc2cc(Cl)c(Cl)cc2nc1N1CCCN(S(=O)(=O)c2ccc(NC(C)=O)cc2)CC1 | -9% | 1.31 |
| COc1ccc(CCN(C(=O)c2cnc(C)nc2)C2CCCCCC2)cc1OC | -2% | 0.42 |
| CC1C(c2ccccc2)CCN1c1cncc(C(N)=O)n1 (centres undefined) | 4% | -0.6 |
| C[C@H](NCC(=O)NCC1CC1)c1ccc(Br)cc1F | -4% | 0.57 |
| CCC(=O)NCc1csc(C2CCN(C(=O)c3ccc(C)cc3)CC2)n1 | -14% | 1.79 |
| CCc1nc(C2(NCC(=O)N3c4ccccc4C[C@@H]3C)CCCC2)no1 | 3% | -0.51 |
| COC[C@@H]1CN(C(=O)c2cccc(C#N)c2)C[C@H]1c1nc(C2CC2)no1 | -15% | 2.64 |
| CCO[C@@H](C)c1noc(-c2cc(NC(C)=O)cc(C(F)(F)F)c2)n1 | -4% | 0.4 |
| CC(=O)OCC(=O)Nc1ccccc1C | -6% | 0.59 |
| Cn1ncc(C(=O)N2CCN(Cc3ccc(-c4cccc(F)c4)s3)CC2)c1N | -19% | 1.96 |
| Cc1c(C)c(C(=O)NCc2cccc(C(F)(F)F)c2)n(Cc2ccc(F)c(F)c2)c1C | -5% | 0.56 |
| C[C@@H]1Oc2cc(S(=O)(=O)N3CCN(C(=O)Cc4cccc(F)c4)CC3)c(Cl)cc2NC1=O | -13% | 1.34 |
| Cc1nsc(N2CCC3CCC(C2)N3C(=O)OC(C)(C)C)n1 (centres undefined) | -8% | 0.81 |
| COc1ccc(OCc2nc(C(=O)N3CCN(c4ccc(C)cc4)CC3)co2)cc1 | -10% | 1.54 |
| Cn1c(COc2ccc(C3CCCC3)cc2)nnc1[C@H]1C[C@@H](N)C1 | 0% | -0.05 |
| CCn1ccc2ccc(CN3CC[C@@H](O)C[C@H]3C(=O)OC)cc21 | -13% | 1.83 |
| Cc1cc(C)c2nc(N3CCC(C(=O)NC4CCCCCC4)CC3)sc2c1 | -8% | 1.22 |
| CC(=O)N(CCN1CCOCC1)[C@H]1CCN(C(=O)CC(C)C)C1 | -9% | 1.14 |
